Out of some 350,000 compounds screened, about 260 (0.074%) were called active. This list was built around the results that the source calls inconclusive (neither active nor inactive); the mix of calls is not that of the screen. Calls come from the whole dose curve; as a rule, active = well fitted inhibition curve with a large enough effect; inconclusive = small, poorly fitted or top-dose-only effect; inactive = no such curve, though single readings can be large or run the other way. Potencies of inconclusive entries are doubtful fits and often do not repeat.
Target: Ferritin light chain (Equus caballus) (UniProt P02791)
Experiment: qHTS Assay for Identification of Novel General Anesthetics; note: nearly all actives have a fitted effect of over 20% in size
Settings: apoferritin/1-aminoanthracene competitive binding, fluorescence; series mostly up to 77.5 µM
Procedure, shortened: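 Horse-spleen apoferritin (10 uM) was mixed with 50% saturated 1-aminoanthracene in PBS, exposed to compounds for 10 min at room temperature, and read for fluorescence (ex 380 nm, em 535 nm). Competitive displacement was fitted with a four-parameter Hill equation.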
Potency is the fitted concentration of half-maximal effect; tags give direction and shape of the fitted curve.

UniProt P02791, sequence (P02791 whole entry, looked up): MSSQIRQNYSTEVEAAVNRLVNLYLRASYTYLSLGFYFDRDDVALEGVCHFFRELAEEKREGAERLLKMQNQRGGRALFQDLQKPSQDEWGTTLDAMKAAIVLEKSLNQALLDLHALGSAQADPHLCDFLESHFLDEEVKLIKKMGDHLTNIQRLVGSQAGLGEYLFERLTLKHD

Row | SMILES | Potency
1 | Cn1c(=O)c2c(n(Cc3ccccc3)c1=O)NC(=O)C2CC(=O)N1CCc2ccccc2C1 (centres undefined) | inconclusive: 25.1 µM [inhibitor, partial curve]
2 | COc1ccc(-n2c(=S)[nH]c3cc(C(=O)NCc4ccco4)ccc3c2=O)c(OC)c1 | inconclusive: 28.2 µM [inhibitor, partial curve]
3 | Cc1ccccc1N=C(NOCc1ccc(Cl)cc1Cl)c1nonc1N | inactive
4 | CCOC(=O)C(=O)Nc1ccc(Oc2ccccc2)cc1 | inconclusive: 31.6 µM [inhibitor, partial curve]
5 | COc1ccccc1N1CCN(C(=O)c2cc3n(n2)C(C(F)(F)F)CC(c2ccco2)N3)CC1 (centres undefined) | inconclusive: 56.2 µM [inhibitor, single point]
6 | O=C(COC(=O)COc1ccc(Br)cc1)NCCC1=CCCCC1 | inconclusive: 31.6 µM [inhibitor, partial curve]
7 | COc1cccc(NC(=S)/C(=C(\[O-])c2ccc(C)c([N+](=O)[O-])c2)[n+]2ccccc2)c1 | inconclusive: 28.2 µM [inhibitor, single point]
8 | O=C(NNS(=O)(=O)c1cc(Cl)cc(Cl)c1)c1sccc1-n1cccc1 | inconclusive: 17.8 µM [inhibitor, partial curve]
9 | COc1ccc(NC(=O)c2ccco2)cc1NC(=O)c1cccc(OC(C)C)c1 | inconclusive: 14.1 µM [inhibitor, partial curve]
10 | CCOc1ccccc1C(=O)Nc1cc(-c2nc3cccnc3s2)ccc1C | inconclusive: 14.1 µM [inhibitor, partial curve]
11 | COc1ccc(-n2c(SCc3nc(-c4ccc(Cl)cc4)no3)nnc2-c2ccncc2)cc1 | inconclusive: 8.91 µM [inhibitor, partial curve]
12 | N#C/C(=C\c1ccc(N2CCCCC2)o1)C(=O)Nc1cccc(Br)c1 | inactive
13 | O=C(CSc1ccccc1)NC1CCCCCC1 | inconclusive: 22.4 µM [inhibitor, partial curve]
14 | O=C1CCCc2nc(N3CCN(C(c4ccccc4)c4ccccc4)CC3)ncc21 | inconclusive: 12.6 µM [inhibitor, partial curve]
15 | COc1ccc(/C=C2\Oc3cc(OC(=O)N4CCOCC4)ccc3C2=O)c(OC)c1 | inactive
16 | CC1(C)CC(=O)C2=C(C1)c1c(ccc3ccccc13)NC2c1cc([N+](=O)[O-])cc([N+](=O)[O-])c1O (centres undefined) | inconclusive: 28.2 µM [inhibitor, partial curve]
17 | Cc1c(NC(=O)C(F)(F)F)ccc2nc3c(=O)n(C)c(=O)n(C)c3nc12 | inactive
18 | C[C@@H](C(=O)NCc1ccccc1)[C@@H]1C[C@@]1(C)[C@@H](NC(=O)OCc1ccccc1)c1ccccc1 | inactive
19 | O=C(Nc1cnn(Cc2ccccc2)c1)c1cc2nc(-c3ccco3)cc(C(F)(F)F)n2n1 | inconclusive: 14.1 µM [inhibitor, partial curve]
20 | CC(C)C[C@@H](C(=O)NC1CC1)N1C(=O)N2CCc3c([nH]c4ccccc34)[C@@]2(C)C1=O | inconclusive: 56.2 µM [inhibitor, single point]
21 | CCCCOC1(c2ccccc2)OC(=O)c2ccccc21 (centres undefined) | inconclusive: 17.8 µM [inhibitor, partial curve]
22 | O=C(Nc1cccc(Cl)c1)N1CCCCCC1 | inconclusive: 5.62 µM [inhibitor, full curve]
23 | O=C(c1ccc(-c2ccccc2)cc1)c1ccccc1C(=O)N1CCOCC1 | inconclusive: 17.8 µM [inhibitor, partial curve]

Row | SMILES | Potency
24 | CC(C)NC(=O)c1onc(CSc2ccc(C(C)C)cc2)c1C(=O)O | inconclusive: 35.5 µM [inhibitor, partial curve]
25 | COc1ccc(/C=N/NC(N)=S)cc1 | inactive
26 | O=c1n(Cc2ccc(Cl)cc2)nc2n1-c1ccccc1OC2 | inactive
27 | Cc1ccc(N2CC(C(=O)NCc3nnnn3-c3ccc(C)c(C)c3)CC2=O)cc1C (centres undefined) | inactive
28 | CC(C)c1ccc2oc(-c3cc(NC(=O)c4cccnc4)ccc3Cl)nc2c1 | inconclusive: 11.2 µM [inhibitor, partial curve]
29 | COc1cc(C(=O)NCC(c2ccc3c(c2)OCO3)N2CCN(C)CC2)cc(OC)c1OC (centres undefined) | inconclusive: 44.7 µM [inhibitor, single point]
30 | O=C(c1cnn2c(C(F)(F)F)cc(-c3ccccc3)nc12)N1CCCCC1c1cccnc1 (centres undefined) | inactive
31 | O=C(Nc1ccc(Cl)c(Cl)c1)c1cccc(S(=O)(=O)NCc2cccnc2)c1 | inconclusive: 50.1 µM [inhibitor, single point]
32 | Cc1noc(C)c1COC(=O)c1cc(F)c(F)cc1Cl | inconclusive: 39.8 µM [inhibitor, single point]
33 | Cc1ccc(N=C(NO)c2nonc2N)cc1 | inconclusive: 35.5 µM [inhibitor, partial curve]
34 | CC(C)C(=O)Nc1cccc(NC(=S)NC(=O)c2ccc(Cl)cc2)c1 | inconclusive: 28.2 µM [inhibitor, partial curve]
35 | CC(CNC(=O)c1csc2c1CCCCC2)c1ccccc1 (centres undefined) | inactive
36 | COc1ccc(C(=O)NNC(=O)C(=O)/C=C(\O)c2ccc(C)cc2)cc1 | inactive
37 | CCCCCn1c(=O)c(C(=O)c2ccccc2)nc2ccccc21 | inconclusive: 28.2 µM [inhibitor, single point]
38 | O=c1cc(N2CCCCC2)c(-c2ccccc2)nn1Cc1ccccc1Cl | inconclusive: 10 µM [inhibitor, full curve]
39 | Cc1cccc(C(=O)NCC(=O)OCC(=O)N2CCc3ccccc32)c1 | inconclusive: 14.1 µM [inhibitor, partial curve]
40 | Cc1ccsc1C(=O)Nc1cc(C(C)(C)C)nn1-c1ccccc1 | inconclusive: 28.2 µM [inhibitor, single point]
41 | CCN(CC)CCOC(=O)c1ccc(Cl)cc1Cl | inactive
42 | CCOc1ccc(C(=O)c2cn(Cc3ccc(OC)cc3)c3cc(OC)c(OC)cc3c2=O)cc1 | inconclusive: 2.24 µM [inhibitor, full curve]
43 | CCOc1ccc(NS(=O)(=O)c2ccc3[nH]cc(C(=O)NC4CCCC4)c(=O)c3c2)cc1 | inconclusive: 17.8 µM [inhibitor, partial curve]
44 | COc1ccc(S(=O)(=O)N2CCN(Cc3cc(OC)c(O)c(OC)c3)CC2)cc1 | inactive
45 | O=C(OCc1ccccc1)c1ccc2c(c1)-c1ccccc1C2=O | inactive
46 | C=C(C)C1CCC(C)C(OC(C)=O)C1 (centres undefined) | inactive

Row | SMILES | Potency
47 | Cc1noc(Cn2c(=O)c3ccccc3n(CC(=O)Nc3ccc(Cl)cc3)c2=O)n1 | inconclusive: 31.6 µM [inhibitor, single point]
48 | c1ccc(-c2noc(C34CC5CC(CC(C5)C3)C4)n2)nc1 | inconclusive: 31.6 µM [inhibitor, partial curve]
49 | O=C(Nc1cc(Cl)ccc1Cl)C1(c2cccs2)CCOCC1 | inconclusive: 17.8 µM [inhibitor, partial curve]
50 | COc1ccccc1Nc1ccc([N+](=O)[O-])cn1 | inconclusive: 35.5 µM [inhibitor, single point]
51 | Cc1ccc(/C=N/NC(=O)CSc2nc3ccccc3s2)o1 | inconclusive: 50.1 µM [inhibitor, single point]
52 | N#C/C(=C\c1cccc(Cl)c1)C(=O)c1ccccc1 | inactive
53 | Cc1cc(NC(=O)c2ccccc2)ncc1NC(=O)c1cccs1 | inactive
54 | CCC(C)Nc1nc(C)nc2c1oc1ccccc12 (centres undefined) | inactive
55 | CC(NC(=O)c1cccc(NC(=O)c2nsc3ccccc23)c1)c1ccccc1 (centres undefined) | inactive
56 | CCCC(=O)Nc1cc(-c2nc3cccnc3s2)ccc1C | inconclusive: 1.12 µM [inhibitor, full curve, poor fit]
57 | CCOC(=O)c1cn(-c2c(Cl)cccc2Cl)c2cc(Cl)c([N+](=O)[O-])cc2c1=O | inactive
58 | Cc1ccc(-c2ccc(/C=N/N3C(=O)C4C5C=CC(CC5)C4C3=O)o2)c([N+](=O)[O-])c1 (centres undefined) | inconclusive: 31.6 µM [inhibitor, partial curve]
59 | CCOc1cc(CNCCc2ccc(S(N)(=O)=O)cc2)ccc1OCc1ccc(Cl)cc1 | inconclusive: 17.8 µM [inhibitor, partial curve]
60 | Cc1ccn(CCC(=O)O)n1 | inactive
61 | CCCCNC(=O)CCn1c(=O)c2cccn2c2ccc(F)cc21 | inconclusive: 39.8 µM [inhibitor, single point]
62 | COc1ccc(C2/C=C\CN(C(=O)C3CC3)C(C)C(=O)N2Cc2ccc(F)cc2)cc1 (centres undefined) | inactive
63 | O=C(COC(=O)CSc1cc(Cl)ccc1Cl)Nc1ncc(C(F)(F)F)cc1Cl | inconclusive: 50.1 µM [inhibitor, single point]
64 | CCC(=O)NC(=S)Nc1ccc(S(=O)(=O)NC2CCCCC2)cc1 | inconclusive: 22.4 µM [inhibitor, partial curve]
65 | CCOC(=O)c1c(C2COc3ccccc3O2)csc1N (centres undefined) | inconclusive: 44.7 µM [inhibitor, partial curve, poor fit]
66 | O=C(COc1ccccc1Cl)Nc1ccc(CN2CCOCC2)cc1 | inconclusive: 35.5 µM [inhibitor, partial curve]
67 | Cc1ccc(-n2nc3c(=O)n(CC(=O)NCCc4ccco4)nc(C)c3c2C)cc1 | inconclusive: 22.4 µM [inhibitor, partial curve]
68 | Cc1ccc(N2C(=O)C3C(C2=O)C(C(=O)c2ccc(Cl)cc2)N2CCCC32)cc1 (centres undefined) | inconclusive: 22.4 µM [inhibitor, partial curve]
69 | CCOC(=O)CSC1=C(C#N)C(c2ccc(F)cc2)C(C(C)=O)=C(C)N1 (centres undefined) | inconclusive: 20 µM [inhibitor, partial curve]

From PubChem BioAssay AID485281 (National Center for Advancing Translational Sciences (NCATS), 2010)
